This is an account of results in paper PMC4729902.

The target of the test is T1, FLAG-tagged MEIOC complete protein (mouse) (UniProt A2AG06).
T1 sequence: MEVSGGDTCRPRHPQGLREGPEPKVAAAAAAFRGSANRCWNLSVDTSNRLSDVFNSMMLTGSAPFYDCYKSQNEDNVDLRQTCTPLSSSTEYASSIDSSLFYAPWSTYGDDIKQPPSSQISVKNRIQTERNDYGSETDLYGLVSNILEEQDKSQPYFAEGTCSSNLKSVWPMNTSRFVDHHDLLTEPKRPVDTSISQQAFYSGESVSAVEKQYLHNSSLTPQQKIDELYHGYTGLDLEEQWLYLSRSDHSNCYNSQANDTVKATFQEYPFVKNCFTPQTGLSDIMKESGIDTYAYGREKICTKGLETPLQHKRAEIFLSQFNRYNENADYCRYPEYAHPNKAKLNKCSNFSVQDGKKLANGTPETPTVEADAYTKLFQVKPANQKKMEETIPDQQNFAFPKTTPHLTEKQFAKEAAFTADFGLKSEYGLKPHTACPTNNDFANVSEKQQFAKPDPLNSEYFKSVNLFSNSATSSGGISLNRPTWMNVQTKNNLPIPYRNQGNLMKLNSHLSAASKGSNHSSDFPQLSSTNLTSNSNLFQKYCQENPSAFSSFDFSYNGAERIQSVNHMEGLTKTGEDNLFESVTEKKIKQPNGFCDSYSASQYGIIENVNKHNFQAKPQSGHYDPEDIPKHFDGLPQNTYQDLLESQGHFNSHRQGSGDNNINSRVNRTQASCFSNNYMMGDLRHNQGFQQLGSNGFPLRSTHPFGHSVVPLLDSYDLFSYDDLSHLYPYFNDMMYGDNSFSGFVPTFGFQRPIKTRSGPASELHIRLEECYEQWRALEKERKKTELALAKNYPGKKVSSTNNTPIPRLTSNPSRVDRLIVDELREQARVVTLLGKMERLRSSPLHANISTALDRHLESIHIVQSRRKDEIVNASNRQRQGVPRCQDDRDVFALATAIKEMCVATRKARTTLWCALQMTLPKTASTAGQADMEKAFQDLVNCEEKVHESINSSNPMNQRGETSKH
Briefly: co-IP; HEK-293 cells overexpressing FLAG-tagged MEIOC or deletion mutants, pre-treated 2 h with 10 μM MG-132; IP with anti-FLAG M2 magnetic beads, western blot with anti-FLAG and anti-YTHDC2. A general note: A western blot detects proteins with antibodies after separation by electrophoresis.

These are yes or no findings as the source states them, for the method shown. Binding seen in cells or lysates may run through a third protein. Some entries that bind do so weakly or less than the wild type. Where a sequence is shown, tags or fusion partners need not be part of it.

B1: YTHDC2, in HEK-293 cells (protein, UniProt Q9H6S0 1-1430)
chain: MSRPSSVSPRQPAPGGGGGGGPSPCGPGGGGRAKGLKDIRIDEEVKIAVNIALERFRYGDQREMEFPSSLTSTERAFIHRLSQSLGLVSKSKGKGANRYLTVKKKDGSETAHAMMTCNLTHNTKHAVRSLIQRFPVTNKERTELLPKTERGNVFAVEAENREMSKTSGRLNNGIPQIPVKRGESEFDSFRQSLPVFEKQEEIVKIIKENKVVLIVGETGSGKTTQIPQFLLDDCFKNGIPCRIFCTQPRRLAAIAVAERVAAERRERIGQTIGYQIRLESRVSPKTLLTFCTNGVLLRTLMAGDSTLSTVTHVIVDEVHERDRFSDFLLTKLRDLLQKHPTLKLILSSAALDVNLFIRYFGSCPVIYIQGRPFEVKEMFLEDILRTTGYTNKEMLKYKKEKQQEEKQQTTLTEWYSAQENSFKPESQRQRTVLNVTDEYDLLDDGGDAVFSQLTEKDVNCLEPWLIKEMDACLSDIWLHKDIDAFAQVFHLILTENVSVDYRHSETSATALMVAAGRGFASQVEQLISMGANVHSKASNGWMALDWAKHFGQTEIVDLLESYSATLEFGNLDESSLVQTNGSDLSAEDRELLKAYHHSFDDEKVDLDLIMHLLYNICHSCDAGAVLIFLPGYDEIVGLRDRILFDDKRFADSTHRYQVFMLHSNMQTSDQKKVLKNPPAGVRKIILSTNIAETSITVNDVVFVIDSGKVKEKSFDALNFVTMLKMVWISKASAIQRKGRAGRCRPGICFRLFSRLRFQNMLEFQTPELLRMPLQELCLHTKLLAPVNCPIADFLMKAPEPPPALIVRNAVQMLKTIDAMDTWEDLTELGYHLADLPVEPHLGKMVLCAVVLKCLDPILTIACTLAYRDPFVLPTQASQKRAAMLCRKRFTAGAFSDHMALLRAFQAWQKARSDGWERAFCEKNFLSQATMEIIIGMRTQLLGQLRASGFVRARGGGDIRDVNTNSENWAVVKAALVAGMYPNLVHVDRENLVLTGPKEKKVRFHPASVLSQPQYKKIPPANGQAAAIKALPTDWLIYDEMTRAHRIANIRCCSAVTPVTILVFCGPARLASNALQEPSSFRVDGIPNDSSDSEMEDKTTANLAALKLDEWLHFTLEPEAASLLLQLRQKWHSLFLRRMRAPSKPWSQVDEATIRAIIAVLSTEEQSAGLQQPSGIGQRPRPMSSEELPLASSWRSNNSRKSSADTEFSDECTTAERVLMKSPSPALHPPQKYKDRGILHPKRGTEDRSDQSSLKSTDSSSYPSPCASPSPPSSGKGSKSPSPRPNMPVRYFIMKSSNLRNLEISQQKGIWSTTPSNERKLNRAFWESSIVYLVFSVQGSGHFQGFSRMSSEIGREKSQDWGSAGLGGVFKVEWIRKESLPFQFAHHLLNPWNDNKKVQISRDGQELEPLVGEQLLQLWERLPLGEKNTTD
As to B1, the binding result is “binds”.
